Measurements published in a collection of fitness landscapes (doi:10.1016/j.celrep.2020.107928).
The full ranking holds about 81,000 sequences; the median of “one-hybrid fitness for binding NBS DNA” is about -0.1, and the highest 2% start at about 0.36. This is one part of the list.

B1: Caulobacter ParB omega fusion; a variant is named by its letters at X, in order, B8GW30 (parent)
chain: MESVVVGEPGMSEGRRGLGRGLSALLGEVDAAPAQAPGEQLGGSREAPIEILQRNPDQPRRTFREEDLEDLSNSIREKGVLQPILVRPSPDTAGEYQIVAGERAWRAAQRAGLKTVPIMVRELDDLAVLEIGIIENVQRADLNVLEEALSYKVLMEKFERTQENIAQTIGKSXSHVANXMRLLXLPDEVQSYLVSGELTAXHARAIAAAADPVALAKQIIEGGLSVRETEALARKAPNLSAGKSKGGRPPRVKDTDTQALESDLSSVLGLDVSIDHRGSTGTLTITYATLEQLDDLCNRLTRGI

Variants of: B1
Test: one-hybrid fitness for binding NBS DNA (the Noc-binding site; scaled: cognate 1, non-cognate 0); higher = stronger binding
Details: with NBS DNA site
Method in brief: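 Fitness is the rescaled log change in variant-to-wild-type read ratio, measured by Illumina sequencing of plasmids before and after bacterial one-hybrid selection. The scale puts cognate at 1 and non-cognate at 0. Selection of Caulobacter ParB libraries, four specificity codons randomised, took place in E. coli USO with a HIS3 reporter, site 19 bp from the promoter, over 48 hours at 37°C on M9-minus-histidine with 0.1 mM IPTG and 5 mM 3-AT.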

Variant	one-hybrid fitness for binding NBS DNA
RIWE	≤ 0.2
PLNF	≤ 0.2
PWQA	≤ 0.2
AKMV	≤ 0.2
NLHT	≤ 0.2
MAYR	≤ 0.2
AMLR	≤ 0.2
HMFL	≤ 0.2
EKLL	≤ 0.2
GCCR	≤ 0.2
SVTS	≤ 0.2
QKHG	≤ 0.2
SDAN	≤ 0.2
WAVQ	≤ 0.2
YLPH	≤ 0.2
CHRI	≤ 0.2
LNSK	≤ 0.2
ASMT	≤ 0.2
SPHP	≤ 0.2
NIIY	≤ 0.2
TASY	≤ 0.2
TAGH	≤ 0.2
QLWW	≤ 0.2
QQMA	0.349
TFPA	≤ 0.2

Variant	one-hybrid fitness for binding NBS DNA
SSTR	≤ 0.2
SDHQ	≤ 0.2
CMIT	≤ 0.2
EFVT	≤ 0.2
GTKV	≤ 0.2
CVFW	≤ 0.2
THQR	0.234
RKQH	≤ 0.2
YVPT	≤ 0.2
DVPM	≤ 0.2
NDNT	≤ 0.2
HASW	≤ 0.2
LRKN	≤ 0.2
NCAN	≤ 0.2
GARP	≤ 0.2
GWAG	≤ 0.2
DVRR	≤ 0.2
PPLG	≤ 0.2
HRYI	≤ 0.2
WTAA	≤ 0.2
CQSC	≤ 0.2
TIID	≤ 0.2
FLPN	≤ 0.2
WHKM	≤ 0.2
GNQC	≤ 0.2

Variant	one-hybrid fitness for binding NBS DNA
HVQN	≤ 0.2
KDNI	≤ 0.2
IATV	≤ 0.2
SRGV	≤ 0.2
VRPE	≤ 0.2
IDVR	≤ 0.2
EGSD	≤ 0.2
AKGS	≤ 0.2
YLAR	≤ 0.2
SEPY	≤ 0.2
SRNC	≤ 0.2
VYLK	≤ 0.2
HVMS	≤ 0.2
RFNF	≤ 0.2
CPHV	≤ 0.2
LTKH	≤ 0.2
PQFT	≤ 0.2
CRRV	≤ 0.2
EKRS	≤ 0.2
RAGI	≤ 0.2
KHRI	≤ 0.2
SMIH	≤ 0.2
HRRW	≤ 0.2
APMF	≤ 0.2
YRSM	≤ 0.2

Variant	one-hybrid fitness for binding NBS DNA
EDND	≤ 0.2
CVPS	≤ 0.2
FSFC	≤ 0.2
IMPT	≤ 0.2
ACHC	≤ 0.2
ELDS	≤ 0.2
ELLI	≤ 0.2
WCQT	≤ 0.2
LVLV	≤ 0.2
NFPS	≤ 0.2
PRSR	≤ 0.2
VIRR	≤ 0.2
SSKP	≤ 0.2
APDV	≤ 0.2
HPHW	≤ 0.2
GDDN	≤ 0.2
THNY	≤ 0.2
QGVV	≤ 0.2
DNAQ	≤ 0.2
TSKG	≤ 0.2
ACDL	≤ 0.2
RQWP	≤ 0.2
QFVR	≤ 0.2
YINM	≤ 0.2
AGNF	≤ 0.2

Variant	one-hybrid fitness for binding NBS DNA
GPDT	≤ 0.2
VGYE	≤ 0.2
WLSK	≤ 0.2
SWLF	≤ 0.2
FLKE	≤ 0.2
IAGS	≤ 0.2
MPDR	≤ 0.2
VYDT	≤ 0.2
RKCH	≤ 0.2
GHLH	≤ 0.2
KGTF	≤ 0.2
HTQV	≤ 0.2
QWPP	≤ 0.2
QRWW	≤ 0.2
VPIW	≤ 0.2
IETC	≤ 0.2
RFHA	≤ 0.2
QMHG	≤ 0.2
NSQV	≤ 0.2
HEFP	≤ 0.2
NEER	≤ 0.2
IYWG	≤ 0.2
QYRP	0.216
KIPT	≤ 0.2
SGTG	≤ 0.2

Variant	one-hybrid fitness for binding NBS DNA
HMKC	≤ 0.2
QTLD	≤ 0.2
SFCL	≤ 0.2
TVEC	≤ 0.2
LFTP	≤ 0.2
FNNV	≤ 0.2
IFRM	≤ 0.2
FPHM	≤ 0.2
NLPE	≤ 0.2
SLAK	≤ 0.2
ANKV	≤ 0.2
RIGY	≤ 0.2
RLAA	≤ 0.2
GWKT	≤ 0.2
PLSS	≤ 0.2
GSCF	≤ 0.2
ARTR	≤ 0.2
TKSW	≤ 0.2
GVDD	≤ 0.2
RKWE	≤ 0.2
LRPI	≤ 0.2
RWGC	≤ 0.2
LKLR	≤ 0.2
YIPD	≤ 0.2
TIPK	≤ 0.2

Variant	one-hybrid fitness for binding NBS DNA
LLHL	≤ 0.2
QGKW	≤ 0.2
GWMS	≤ 0.2
WRLI	≤ 0.2
CPWG	≤ 0.2
KPCD	≤ 0.2
PRVG	≤ 0.2
SSPP	≤ 0.2
MARR	0.414
VAPA	≤ 0.2
SDED	≤ 0.2
PLGP	≤ 0.2
QETA	≤ 0.2
FHES	≤ 0.2
AWGT	≤ 0.2
LKAM	≤ 0.2
NRSC	≤ 0.2
DGLS	≤ 0.2
GEYL	≤ 0.2
NSMM	≤ 0.2
AASC	≤ 0.2
GVRI	≤ 0.2
QQHT	0.535
YQLH	≤ 0.2
LEAM	≤ 0.2

Variant	one-hybrid fitness for binding NBS DNA
VGMN	≤ 0.2
FIRY	≤ 0.2
DLIW	≤ 0.2
TFNS	≤ 0.2
STCR	≤ 0.2
KPPG	≤ 0.2
PMHR	≤ 0.2
VPQS	≤ 0.2
MDWS	≤ 0.2
PRKR	0.4
LRDV	≤ 0.2
HYPV	≤ 0.2
TMDY	≤ 0.2
SCPE	≤ 0.2
KTWM	≤ 0.2
HDRR	≤ 0.2
VTMA	≤ 0.2
AYYS	≤ 0.2
QLPI	≤ 0.2
PRGH	≤ 0.2
